The source of these data is PubChem BioAssay AID1460 (National Center for Advancing Translational Sciences (NCATS), 2008).

The whole screen tested about 270,000 compounds, of which about 5,800 (2.1%) were called active. Not shown: some 16% with an inconclusive outcome. Calls follow the shape of the dose curve; as a rule, active = well fitted inhibition curve with a large enough effect; inconclusive = small, poorly fitted or top-dose-only effect; inactive = flat fitted curve, though single readings scatter. Only a part is listed here, and it is no random draw.
% is scaled to controls: 0 for no effect and ±100 for the full control effect; potency is read from the fitted curve at half-maximal effect.

UniProt P10636, sequence (P10636 whole entry, looked up, the tested form may be a part): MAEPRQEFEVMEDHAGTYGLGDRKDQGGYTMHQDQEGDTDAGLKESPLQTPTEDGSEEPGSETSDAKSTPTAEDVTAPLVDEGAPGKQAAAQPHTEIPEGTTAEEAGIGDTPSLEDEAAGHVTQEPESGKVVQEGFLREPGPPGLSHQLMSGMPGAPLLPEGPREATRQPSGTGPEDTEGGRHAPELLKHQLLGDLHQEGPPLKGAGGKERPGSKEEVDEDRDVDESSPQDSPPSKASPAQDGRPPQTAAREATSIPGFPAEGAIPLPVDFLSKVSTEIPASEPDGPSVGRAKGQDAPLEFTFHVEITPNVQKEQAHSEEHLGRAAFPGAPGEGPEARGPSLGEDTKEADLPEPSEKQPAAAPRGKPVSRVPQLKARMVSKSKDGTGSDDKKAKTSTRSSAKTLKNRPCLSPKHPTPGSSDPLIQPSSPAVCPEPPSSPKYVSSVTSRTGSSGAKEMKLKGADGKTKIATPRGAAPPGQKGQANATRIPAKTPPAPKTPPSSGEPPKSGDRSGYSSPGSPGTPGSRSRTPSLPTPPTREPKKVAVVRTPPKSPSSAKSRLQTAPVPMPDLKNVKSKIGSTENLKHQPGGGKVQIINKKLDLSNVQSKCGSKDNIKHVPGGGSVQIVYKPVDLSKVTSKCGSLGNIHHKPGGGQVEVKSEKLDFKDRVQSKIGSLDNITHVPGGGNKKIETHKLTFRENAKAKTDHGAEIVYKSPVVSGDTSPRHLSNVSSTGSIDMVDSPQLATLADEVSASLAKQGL

This experiment deals with Microtubule-associated protein tau (Homo sapiens) (UniProt P10636). The experiment is described as follows: qHTS for Inhibitors of Tau Fibril Formation, Thioflavin T Binding. Also: nearly all actives have a fitted effect of over 55% in size. To be noted: recombinant tau K18 P301L (four-repeat tau fragment), heparin-induced fibrillization, ThT fluorescence; series mostly up to 57.4 µM; activity, negative = inhibition: at the top concentration. In outline:
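Aggregation was driven by heparin (20 uM final) acting on recombinant tau […] bearing P301L in 100 mM sodium acetate pH 7; fibrils were detected with Thioflavin T.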
For orientation: qHTS replaces the single test concentration by a dilution series.
On to `Cc1ccsc1/C=C1\SC(N2CC(C)OC(C)C2)=NC1=O` (stereo not given), for which the “activity, negative = inhibition” value was inactive: -6.21%.
Turning to `CN(C)c1ccc(N=Cc2nc(-c3ccccc3)oc2OC(=O)c2cccc(Br)c2)cc1`, the Potency was active: 10 µM.
`Cc1cccc(COC[C@H](Cc2ccccc2)N2CCN(C(=O)c3cccc(C)c3)CCC2=O)c1`: the “activity, negative = inhibition” value is inactive: -10.1%.
`COCCN1C=C2C(=O)C(C)(OC(=O)c3cccs3)C(=O)C=C2C=C1CCCC(=O)OC` (stereo not given): the activity, negative = inhibition was inactive: 8.54% [at 11.5 µM].
Same read-out and setting: the result for `CC1(C)OCC([C@H](O)C2=CCCCC2=O)CO1` reads inactive: -8.38% [at 11.5 µM].
For `CC(C)(Oc1ccc(Cl)cc1)C(=O)O`, the Potency result is “inactive”.
Take `COc1ccc(O[C@H]2C=C[C@@H](c3ccccc3)O[C@H]2CO/N=C\C[C@@H]2C=C[C@H](OC(C)=O)[C@H](COC(C)=O)O2)cc1`: the activity, negative = inhibition was inactive: -9.66% [at 11.5 µM].
On to `COC(=O)C1(C(=O)OC)CC(CO)C(=O)[C@H]1c1ccccc1` (stereo not given in full), for which the “activity, negative = inhibition” value was inactive: -10.3%.
With `C=CCN1CCN(c2nc3ccccc3nc2C#N)CC1`, the “activity, negative = inhibition” value is inactive: -3.38%.
The same measure, in the same setting: in the case of `CCc1ccc(NC(=O)c2cc(-c3cccs3)on2)cc1` it was inactive: -17.5%; in that of `C/C(CCN1CCc2nc(-c3ccccc3)c(-c3ccccc3)cc2C1)=N\O[C@@H](C)c1cc(-c2c(C)cc(C)cc2C)no1`, inactive: -11.1% [at 11.5 µM]; in that of `Cc1ccc(-c2cc(C(=O)NCc3cnn(C)c3)c3cc(Br)ccc3n2)cc1`, inactive: -3.94%.
As for `COc1ccc(C2C(=O)c3ccccc3C2=O)cc1`, the “activity, negative = inhibition” value is inactive: -2.7%.
In the case of `Cc1nn(-c2ccccc2)c(N2CCCC2)c1/C=C1\N=C(c2ccc(OC(C)C)cc2)OC1=O`, the Potency was active: 10 µM.
Take `N#Cc1ccc(N=c2ssnc2Cl)cc1`: the Potency is active: 20 µM.
Same read-out and setting: the result for `Cc1oc(-c2ccccc2)cc1C(=O)Nc1ccc(N(C)C)cc1` reads active: 12.6 µM.
For the compound `CO[C@H]1COC(=O)[C@@H](C)NC(=O)C/C=C\[C@@H](C)[C@H](OC)COC(=O)C/C=C\[C@@H]1C`, the activity, negative = inhibition was inactive: -12.3% [at 11.5 µM].
On the same count and under the same terms, the result for `COc1ccc(-c2nc(CCNC(=O)c3cccs3)cs2)cc1` reads inactive: -11.6%; that for `Cc1ccc2c(c1)c(CC(=O)Nc1ccc(C)c(F)c1)c(C(=O)O)n2C`, inactive: 4.23%.
`C[C@@]12C(=O)OC(=O)[C@@]1(C)C1CCC2O1`: the “activity, negative = inhibition” value is inactive: -4.12%.
Consider `COc1cc(/C=N/Nc2ccc(S(N)(=O)=O)cc2[N+](=O)[O-])cc(OC)c1O`, for which the Potency was active: 1.78 µM.
Regarding `COc1ccc(COc2cc(-c3cccc(OC)c3)nc3ccc(NC(=O)c4ccccc4)cc23)cc1`, the “activity, negative = inhibition” value was inactive: -9.46%.
With `O=C(C1=C[C@@H](c2ccc3c(c2)OCO3)C[C@@H](OCCCCO)O1)N1CCOCC1`, the “activity, negative = inhibition” value is inactive: -11.4%.
With `O=[N+]([O-])c1cccc2c(Br)[nH]nc12`, the Potency entry was “inactive”.
For `O=C(/C=C/c1cccnc1)/C=C/c1cccnc1`, the Potency is active: 4.47 µM.
